The subject of this data set is ATP. Put plainly: switch fluorescence ratio, 500 uM ATP over buffer (Cy3 cluster intensity, sum of 5 cycles each) (fold (ratio)); higher = stronger signal-on switching upon ATP binding; sequences stand for … in TCGTCGGCAGCGTCAGATGTGTATAAGAGACAGTTTTTTTTTTTTTTTTTTTTTTTTT…TC. The settings on record: aptamer strand: ATP DNA aptamer (quencher-CACCTGGGGGAGTATTGCGGAGGAAGG + anchor), 100 nM annealed; ATP concentration: 500 uM; one replicate. A digest of the protocol: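 Five buffer/ATP imaging cycles were run on Cy3-labelled switching-strand clusters on a modified Illumina MiSeq flow-cell, with NaOH stripping and re-annealing between cycles. In each cycle, clusters annealed to 100 nM quencher-labelled ATP aptamer were imaged in selection buffer, then after 15 min with 500 uM ATP at 22 °C. Per cluster, the fluorescence ratio is summed target-cycle over summed buffer-cycle Cy3 intensity, averaged per switch-domain sequence. Only clusters within 100-1000 RFU were kept.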

Switch fluorescence ratio data for 67 sequences are collected here from the supplement of paper PMC10126150.

Sequences with one replicate were seen in a single cluster, so their values are uncertain.
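Also: ATP exposure 15 min at 22 °C before imaging.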

As to GCTTAGAAAT, the switch fluorescence ratio is 0.98. With TCGTGAAGCA the figure was 1.12; with GGTCGAAGAG, 1.01; with CTATGCTCTT, 1. With CTGCACTTAT the figure was 1.07; with CTCGTATGT, 0.981. With GTGGAGCTCG the figure was 0.987; with CCGCAGTGGG, 3; with TAACTTCCAT, 1.02.

For TGTATGATTC, the switch fluorescence ratio was determined as 1.04. With GGCTGTGCAA the figure was 1.33. On to CCACCCTTTG, for which the switch fluorescence ratio stood at 1.06. Take CAATAAGAAG: the switch fluorescence ratio came out at 0.947.

Consider GGAGAGCCTC, for which the switch fluorescence ratio is 0.933. With TGATCCAAAT the figure was 1.01; with CATCCGCGTG, 1.77; with TTTTCTGCTC, 1.01. For GGGAGTCCAT, the switch fluorescence ratio came to 0.99. Regarding CCAGGTTCTA, the switch fluorescence ratio came to 1.04. TCGTTCTGTG: the switch fluorescence ratio amounted to 0.952.

Regarding GGTTTAGGCG, the switch fluorescence ratio was found to be 0.882. With AGCCTATATA the figure was 1. In the case of AGGCCTAAGA, the switch fluorescence ratio turned out to be 1. Next, TTGCAACGGA: 1.02; CGATGCGAA: 1.14; TCTTCAACTC: 0.999.

Take GAGATGAACG: the switch fluorescence ratio came out at 1.03. Next, CGTTTAATTT: 0.986; GGGAATTTCT: 0.96. Next, ATAAGCAGAC: 2.18; TAATGGGAAG: 1.01. Consider AGTAATCGTT, for which the switch fluorescence ratio is 1.04.

For the sequence TTGTGTTCTG, the switch fluorescence ratio turned out to be 0.992. Next, AATTCAGGCT: 0.977. TAGAGAAGGA: the switch fluorescence ratio was 1.04.

Regarding ACGACAAACG, the switch fluorescence ratio stood at 1.11.

Take TTTTATGCCG: the switch fluorescence ratio was 1.04.

In the case of GAGTTGTTTC, the switch fluorescence ratio was 0.972. Next, CTGCTTGCCA: 1; GCATCTCTCA: 1.04. With ACATTTACAG the figure was 1.11; with CCTTGTCATC, 1.16. With CCGCGGAAGG the figure was 1.01. For GTCTAAGCCG, the switch fluorescence ratio was 0.997. With GAAAAGGAAG the figure was 1.04.

As for AAGTTGGAGA, the switch fluorescence ratio is 0.988.

With CGCCGAACTT, the switch fluorescence ratio turned out to be 1.02.

Regarding AGGAGCCGTT, the switch fluorescence ratio came to 0.983.

With GTTTCGGAGG, the switch fluorescence ratio was 0.991.

As for GATTACAGT, the switch fluorescence ratio was 1.02.

As for GGGTTGATGT, the switch fluorescence ratio came out at 1.03. With AACACTCGAA the figure was 0.989; with ATACAGATTT, 1.07; with AGTAGACGCT, 0.994. Next, TTGGTAACGT: 1.01; GGTTTGTATT: 0.967; AATGGCCGGG: 0.954. With GAAAGAGAGC, the switch fluorescence ratio is 0.956.

As to CTGATCAGGA, the switch fluorescence ratio came to 0.96.

For the sequence GCCCCCCCCC, the switch fluorescence ratio came out at 1.09.

Take ACTTAGTAGT: the switch fluorescence ratio is 1.02.

For TTGTTCGGT, the switch fluorescence ratio amounted to 0.971. With TCCCAGCAGC the figure was 3.21. With TGCGAAGGAC, the switch fluorescence ratio was 1.09. With TCTCCCGGGG the figure was 1.26. Next, ACGGTAGCTT: 1.14. With CATGAGGTGG the figure was 1.25.
